Read counts are not given, so values of variants with three or more changes are uncertain.
B1: CPEB3 Ribozyme (parent)
chain: UAACAGGGGGCCACAGCAGAAGCGUUCACGUCGCAGCCCCUGUCAGAUUCUGGUGAAUCUGCGAAUUCUGCUGUAUAUCUC

Variants of: B1
Test: self-cleavage, relative activity (ratio to wild type); higher = more cleavage; in vitro, sequencing
In short: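 After error-prone PCR and barcoding, CPEB3 ribozyme mutant libraries were transcribed with T7 RNA polymerase at 37°C for 5 hours, then given 15 min with DNase I before an EDTA stop, and they cleaved during both steps. Reverse transcription with template switching preceded Illumina sequencing. Relative activity divides a variant's cleaved/total read fraction by the unmutated ribozyme's. At least 5 reads were required per variant, and three batches were averaged.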

Variant	self-cleavage
UAUCAGGGGGCCACAGCAGAAGCGUUCACGUCGCAGCCCCUGUCAGAUUCUGGUGAAUCUGCGAAUCCCGCUGCAUAUCCC [A3U U67C U69C U74C U80C]	0.3
UAUCAGGGGGCCACAGCAGAAGCGUUCACGUCGCAGCCCCUGUCAGAUUCUGGUGAAUCUGCGAAUUCUGCCGUAUAUCAC [A3U U72C U80A]	1.26
UAAAUGGGGGCCACAGCAGAAGCGCUCACGUCGCAGCCCCUGUCUGAUUCUGAUGGAUCAGCGAAUUCUGCUGUAUAUCUC [C4A A5U U25C A45U G53A A56G U60A]	0.25
UAAAAGGGGGCCUCAGCAGAAGCGUUCACGUCGCAGCCCCUGUCAGAUUCUGGUGAACCUGCGGAUUCUGCUGUAUGUCUC [C4A A13U U58C A64G A77G]	0.91
UAAAAGGGGGCCUCAGCAGAAGCGUUCACGUCGCAGCCCCUGUCAGAUUCUGGUGAACCUACGGAUUCAGCUGUAUGUCUC [C4A A13U U58C G61A A64G U69A A77G]	0.23
UAAAAGGGGGCCACGGCAGAAGCGUUCACGUCGCAGCCCCUGUCGGAUUCUGGGGAAUCUGCGAAUUCCGCUGUAUAUCUC [C4A A15G A45G U54G U69C]	0.18
UAAAAGGGGGCCACAGCGGAAGCGUUCACGUCGCAGCCCCUGUCAGAUUCCGGUGAAUCUGCGAAUUCUGCUGUAUAUCUC [C4A A18G U51C]	0.87
UAAAAGGGGGCCACAGCAGAAGCGUUCGCGUCGCAGCCCCUGUCAGAUCCUGGUGGAUCUGCGAAUUCUGCUGUAUAUCUC [C4A A28G U49C A56G]	1.01
UAAAAGGGGGCCACAGCAGAAGCGUUCACGUCGCAGCCCCUGUCGGAUUCUGGUGAAUCUGCGAAUUCUGCUGUAUAUCCC [C4A A45G U80C]	1.02
UAAAAGGGGGCCACAGCAGAAGCGUUCACGUCGCAGCCCCUGUCAGAUUCUGGUGAAUCUGCGAGUCCUGCUGUAUAUCUC [C4A A65G U67C]	0.41
UAAAAGGGGGCGACAGCAGAAGCGUUCACGUCGCAGCCCCUGUCGGAUUCUGGUGAAUCUGCGAAUUCAGCUGUAUAUCUC [C4A C12G A45G U69A]	0.54
UAAAAGGGGGCCAGAGCGGUAGCAUUCACGUCGCAGCCCCUGUCAGAUUCUGGUGAAUCUGCGAAUUCUGCUGUAUGUCUC [C4A C14G A18G A20U G24A A77G]	0.1
UAAAAGGGGGCCACAGCAGAAGCGUUCACGUAGCAGCCCCUGUCGGAUUCUGGUGAAUCUGCGAAUUCUGCUGUAUAUCUC [C4A C32A A45G]	0.6
UAAAAAGGGGACACAGCAGAAGCGUUCACGUCGCAGCCCCUGUCAGUUUCUGGUGAAUCUGCGAAUUCUGCUGUAUAUCUC [C4A G6A C11A A47U]	0.57
UAAAAGGAGGCCACAGCAGAAGCGUUCACGUCGCAGCCCCUGUCAGAUUCUGGUGAAUCUGCGAAUUCUGUCGUAUAUCUC [C4A G8A C71U U72C]	0.13
UAAAAGGGGGCCACAGCAGAAGCGCUCACGUCGCAGCCCCUGUCAGAUUCUGGUGAAUCUGCGAACUCUGCUGUAUAUCUC [C4A U25C U66C]	0.66
UAAAAGGGGGCCACAGCAGAAGCGUACACGUCGCAGCCCCCGUCAGAUUCCGGUGAAUCUGCGAAUUCUGCUGUAUAUCUC [C4A U26A U41C U51C]	0.76

Variant	self-cleavage
UAAAAGGGGGCCACAGCAGAAGCGUACACGUCGCAGCCCCUGUCAGAUUCAGGAGAAUCUGCGAAUUCUGCUGUAUAUCUC [C4A U26A U51A U54A]	1.16
UAAAAGGGGGCCACAGCAGAAGCGUUCACGCCGUAGCCCCUGUCAGAUUCUGGUGAACCUGCGAAUUCUGCUGUAUAUCUC [C4A U31C C34U U58C]	0.09
UAAAAGGGGGCCACAGCAGAAGCGUUCACGCCGCAGCCCCCGUCAGACUCUGGUGUAUCUGCGGAUUCUGCUGCAUAUCUC [C4A U31C U41C U48C A56U A64G U74C]	0.12
UAAAAGGGGGCCACAGCAGAAGCGUUCACGUCGCAGCCCCUGUCAGAUUCUGGUGAACCUGCGAAUUCUGCUGUAUAUCAC [C4A U58C U80A]	0.93
UAAGGGGGGGCCACAGCAGGAGCGUUCACGUCGCAGCCCCUGUCAGAUUCUGGUGAACCUGCGAAUUCUGCUGUAUAUCUC [C4G A5G A20G U58C]	0.13
UAAGAGGGGGCCGCAGCAGAAGCGUUCCCGUCGCAGUCCCAGUCAGAUUCUGGUGAAUCUGCGAAUUCUGCUGUAUAUCUC [C4G A13G A28C C37U U41A]	0.3
UAAGAGGGGGCCACAGCGGAAGCGUUCACGACGCUGCCCCUGUCAGAUUCUGGUGAAUCAGCGAAAUCUGCUGUAUAUCUC [C4G A18G U31A A35U U60A U66A]	0.14
UAAGAGGGGGCCACAGCGGAAGCGUUCACGUCGCAGCCCCUGUCAGAUUCCGGUGGACCUGCGAAUUCUGCUGUAUAUCCC [C4G A18G U51C A56G U58C U80C]	0.23
UAAGAGGGGGCCACAGCAGAGGCAUUAACGACGCAGCCCCUGUCAGAUUCUGGUGAAUCUGCGAAUACUGCCGUAUAUCUC [C4G A21G G24A C27A U31A U67A U72C]	0.06
UAAGAGGGGGCCACAGCAGAGGCGUCCACGUCGCAGCCCCUGUCAGAUUCUGGUGAAUCUGCGAAUUCUGCAGUAUAUCUC [C4G A21G U26C U72A]	0.23
UAAGAGGGGGCCACAGCAGAGGCGUUCACGUCGCAGCCCCUGUCAGAUUCUGGUGAAUCCGCGAAGUGUGCUGUAUAUCUC [C4G A21G U60C U66G C68G]	0.19
UAAGAGGGGGCCACAGGAGAAGCGUUCCCGUCGCAGCCCCUGUCAGAUUCUGGUGAAUCUGCAAAUUCUGCUGUAUAUCUC [C4G C17G A28C G63A]	0.24
UAAGAGGGGGCCACAGCAGAAGCGUUAACAGCGCAGCCCCUGUCAGAUUCUGGUGAAUCUGCGAAUUCUGCUGUAUAUCUC [C4G C27A G30A U31G]	0.23
UAAGAGGGAGCCACAGCAGUAGCGUUCACGUCGCAGCCCCUGUCAGAUUCUGGUGAAUCUGCGAAUUCUGCUGUAUAUCUC [C4G G9A A20U]	0.06
UAAGAGGGGGCCACAGCAGAAGCGUUCACGUCGCAGCCCCUGUCAGAUUCUGGAGAAUCUGCGAAUUCUGCUGUAUGUCUC [C4G U54A A77G]	1.18
UAAUCGGGGGCCACAGCAGUUGCGUUCGCGUCGCAGCCCCUGUCAGAUUCUGGUGAAUCUGCGAAUUCUGCUGUAUUUCUC [C4U A5C A20U A21U A28G A77U]	0.16
UAAUUGGGGGCCACAGCAGAGGCGUACACGUCGCAGCCCCUGUCAGAUUCUGGUGAAUCUGCGAAUUCUACUGUAUAUCUC [C4U A5U A21G U26A G70A]	0.33
